# PubChem BioAssay AID1347417 (National Center for Advancing Translational Sciences (NCATS), 2020)
# In all, about 120,000 compounds went through this assay and about 5,300 (4.4%) were called active. Inconclusive results, whose numbers are uncertain, are shown with a selection of clear calls. Calls come from the whole dose curve; as a rule, active = well fitted inhibition curve with a large enough effect; inconclusive = small, poorly fitted or top-dose-only effect; inactive = no such curve, though single readings can be large or run the other way. A potency beside an inconclusive call is a rough fit, not a confirmed value.
# Assay: qHTS Primary assay for Inhibitors of Plasmodium falciparum Dd2 growth in vitro; note: nearly all actives have a fitted effect of over 65% in size;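 for activity, negative = inhibition: plate controls were DMSO vehicle for no effect and reference drug for full effect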
# Details: P. falciparum Dd2 growth, SYBR Green, 72 h; activity, negative = inhibition: at 28.9 µM (top of the series) unless noted; series mostly up to 28.9 µM
# Procedure, shortened: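 Infected erythrocytes (Dd2, 0.3% parasitemia, 2.5% hematocrit final) are added to compound in RPMI-1640/Albumax II medium, grown 72 h at 37C in low oxygen, then lysed with saponin/Triton-X containing SYBR Green and read by fluorescence.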
# Potency is the fitted concentration of half-maximal effect; tags give direction and shape of the fitted curve.
SMILES,Potency,"activity, negative = inhibition",outcome
CCOC(=O)c1cc(-c2ccccc2)n(CCCC(=O)Nc2ccc(C)cc2C)c1C,"inconclusive: 17.8 µM [inhibitor, single point]",,
CCC1(N2CCN(S(=O)(=O)c3ccc(F)c(C)c3)CC2)CCN(C(=O)NC)C1 (stereo unspecified),"inconclusive: 10 µM [inhibitor, single point]",,
O=C(Cn1c(=O)n(Cc2ccc3c(c2)OCO3)c(=O)c2ccc(C(=O)NC3CCCCC3)cc21)Nc1ccccc1F,"inconclusive: 11.2 µM [inhibitor, single point]",,
COc1ccc(-c2cc(C(=O)Oc3ccc(C)c(C)c3)c3ccccc3n2)cc1,"inconclusive: 12.6 µM [inhibitor, single point]",,
O=C(NCCCN1CCCCC1)c1cc(Sc2ccc(Cl)cc2)nc2ccccc12,"inconclusive: 0.398 µM [inhibitor, full curve]",,
O=C1[C@H]2CN(Cc3ccccc3F)C[C@H]2C(=O)N1CCN1CCc2ccccc2C1,active: 5.01 µM,,
COc1ccc2nc([C@H]3CCN(C4CCCCC4)C3)[nH]c2c1,,inactive: -6.37% [at 44.1 µM],
CN(Cc1cccn1C)CC1CCCCC1,,inactive: -12.4% [at 44.1 µM],
COc1cc(-c2nc3ccc(C)cn3c2Nc2ccc(Cl)cc2)ccc1O,"inconclusive: 7.08 µM [inhibitor, partial curve, poor fit]",,
c1ccc2c(c1)CCN2C1CN(CC2CCCCC2)C1,"inconclusive: 10 µM [inhibitor, partial curve]",,
O=C1NCCCCCCN(C(=O)Nc2ccccc2F)[C@H]2C[C@H](c3nc(-c4cccnc4)no3)C[C@@H]12,,inactive: -7.09%,
O=C1Cc2c(-c3ccsc3)n[nH]c2CN1CC1CC1,,inactive: -27.2% [at 44.1 µM],
CCCN(C)c1nccnc1OC1CCN(C(=O)C2CCC2)C1 (stereo unspecified),"inconclusive: 5.01 µM [inhibitor, partial curve, poor fit]",,
Cc1ccc(Cn2c(C3CCN(C(=O)c4ccc(C)s4)CC3)n[nH]c2=O)cc1,active: 11.2 µM,,
COc1ccccc1Nc1cnc2ccc(N(C)Cc3cccnc3)nn12,"inconclusive: 5.62 µM [inhibitor, single point]",,
O=C(c1cc(F)ccc1F)N1CCCC(Cc2noc(-c3ccccc3)n2)C1 (stereo unspecified),,inactive: 19.5%,
COc1cccc(-c2nnc3n(Cc4ccccc4Cl)c(=O)c4ccccc4n23)c1O,"inconclusive: 10 µM [inhibitor, single point]",,
CCOc1ccc(C(=O)N2CCN(c3cc(-c4ccc(Cl)cc4)[nH]n3)CC2)cc1OCC,"inconclusive: 1.12 µM [inhibitor, partial curve, poor fit]",,
CN(C)C[C@@H]1CN(c2ccncn2)C[C@H]1NC(=O)c1ccsc1,,inactive: -10.6%,
COc1ccccc1NC(=O)CCn1c(=O)oc2cc(Cl)ccc21,,inactive: 19.7% [at 5.79 µM],
O[C@H]1[C@H](NCC2CCCCC2)[C@H]2CO[C@H](O2)[C@@H]1N1CCC(Cc2ccccc2)CC1,active: 1.41 µM,,
O=S(=O)(c1ccc(Br)cc1)c1nnn2c1nc(NCc1cccs1)c1sccc12,"inconclusive: 17.8 µM [inhibitor, single point]",,

SMILES,Potency,"activity, negative = inhibition",outcome
COc1ccc(-c2cc(C(=O)NCCc3ccccc3)c3cc(C(C)C)ccc3n2)cc1,"inconclusive: 17.8 µM [inhibitor, single point]",,
c1ccc2c(Cc3nnc([C@H]4CCN(C5CCCCC5)C4)o3)c[nH]c2c1,"inconclusive: 5.62 µM [inhibitor, single point]",,
Cc1ccc(C(=O)Nc2ccc3ncnc(N4CCCC4)c3c2)s1,"inconclusive: 3.55 µM [inhibitor, partial curve, poor fit]",,
COCCOC1CN(C2CCN(C(=O)COc3ccc(F)cc3)CC2)C12CCCCC2 (stereo unspecified),"inconclusive: 5.01 µM [inhibitor, partial curve]",,
CCc1nc2c(c(-c3ccc(Cl)cc3)n1)CCN(Cc1ccns1)CC2,"inconclusive: 17.8 µM [inhibitor, single point]",,
COc1ccc(-n2c(=O)c3ccc(C(=O)NCc4ccc(C)cc4)cc3n(CC(=O)Nc3ccc(C)cc3)c2=O)cc1,"inconclusive: 10 µM [inhibitor, single point]",,
Cc1ccc(Cn2c(C(=O)O)c(CNCCc3ccco3)c3ccc(C)cc32)cc1,"inconclusive: 20 µM [inhibitor, single point]",,
COc1ccc(Nc2cnc3ccc(-c4ccc(F)cc4)nn23)cn1,"inconclusive: 3.98 µM [inhibitor, full curve, poor fit]",,
Cc1nn(C)cc1CN1C[C@@H](CO)[C@H](c2ccccn2)C1,"inconclusive: 8.91 µM [inhibitor, partial curve, poor fit]",,
O=[S+]1([O-])NCC2(CCN(Cc3cccc4ccccc34)CC2)Nc2ccccc21,,,inactive
Clc1ccc(CSc2nc3ncccc3[nH]2)cc1,"inconclusive: 17.8 µM [inhibitor, single point]",,
Cc1ccc(C2Cn3cnc(C(=O)N4CCC(C(=O)NC(C)c5ccccc5)CC4)c3CO2)cc1 (stereo unspecified),"inconclusive: 17.8 µM [inhibitor, single point]",,
CC(=O)N1CCC(N2CCOC[C@H]2c2ncc(-c3cccnc3)[nH]2)CC1,,inactive: 28.5% [at 44.1 µM],
Cc1ccc(OCc2ccc(C(=O)N3C[C@H](C4CC4)[C@@H](N)C3)cc2)cc1,active: 10 µM,,
Cc1nc2ccccc2n1CCc1nc2c3ccccc3nc(SCC(=O)Nc3ccc(C(C)C)cc3)n2n1,active: 8.91 µM,,
COc1cccc(Cn2cc(S(=O)(=O)c3ccc(C)cc3)c(=O)c3cc4c(cc32)OCO4)c1,"inconclusive: 17.8 µM [inhibitor, single point]",,
CC(C)CC(=O)Nc1c(C(=O)N2CCN(c3ccccc3F)CC2)oc2ccccc12,active: 7.08 µM,,
COc1ccc(C(=O)N2CCC3(CNc4ccccc4[S+](=O)([O-])N3)C2)cc1 (stereo unspecified),,inactive: -19.5%,
N#CC1CCN(Cc2ccccc2OCC(O)CN2CCCCC2)CC1 (stereo unspecified),"inconclusive: 11.2 µM [inhibitor, single point]",,
NC1CCCCN(Cc2ccc(Cl)c(F)c2)C1 (stereo unspecified),"inconclusive: 3.16 µM [inhibitor, partial curve, poor fit]",,
COc1ccc(C(=O)N2CCN(c3cc(-c4cccs4)[nH]n3)CC2)cc1,"inconclusive: 1.12 µM [inhibitor, partial curve, poor fit]",,
Cn1nc(C(=O)N2CCCC(CN3CCCC3)CC2)c2ccccc21 (stereo unspecified),active: 3.16 µM,,

SMILES,Potency,"activity, negative = inhibition",outcome
CCOc1ccc(C2NC(=O)N(CCC(C)C)C3=C2C(=O)OC3)cc1 (stereo unspecified),"inconclusive: 17.8 µM [inhibitor, single point]",,
Cc1cccc(CN2C(=O)c3ccccc3S(=O)(=O)c3ccc(C(=O)N4CCN(c5cc(C)ccc5C)CC4)cc32)c1,"inconclusive: 17.8 µM [inhibitor, single point]",,
COc1cccc(C(=O)n2nc(-c3ccco3)nc2NCc2cccs2)c1,,inactive: 22.7%,
CC(C)N1Cc2cc(C(=O)Nc3cccc4c3CCCC4)sc2C1,"inconclusive: 20 µM [inhibitor, single point]",,
CN(Cc1ccccc1)C[C@H]1CN2CC[C@H]1C[C@@H]2CNC(=O)c1ccc(N(C)C)cc1,"inconclusive: 1.12 µM [inhibitor, partial curve, poor fit]",,
O=[S+]([O-])(c1cccs1)N1CCCC2(CC(c3cccc(C(F)(F)F)c3)=NO2)C1 (stereo unspecified),"inconclusive: 3.98 µM [inhibitor, single point]",,
C=CCNC(=O)N1CCOC(CN(CC(C)C)C(=O)c2cccc(OC)c2)C1 (stereo unspecified),"inconclusive: 7.94 µM [inhibitor, partial curve, poor fit]",,
Cc1ncoc1C(=O)N1CC(c2noc(C3CCCN3CC3CC3)n2)C1 (stereo unspecified),"inconclusive: 3.98 µM [inhibitor, single point]",,
CC(=O)NC1(C)CCN(Cc2ccc(-c3cccc(C(F)(F)F)c3)cc2)C1 (stereo unspecified),"inconclusive: 15.8 µM [inhibitor, single point]",,
CCNC(=O)N1CCc2cc(OC)c(OC)cc2C1CNC(=O)c1ccccc1C (stereo unspecified),"inconclusive: 7.08 µM [inhibitor, partial curve]",,
Cc1ccc(F)c(OC2(C(=O)O)CCN(S(=O)(=O)c3cnn(C)c3)CC2)c1,,inactive: -4.72%,
CCc1ccc(S(=O)(=O)c2nnn3c2nc(N2CCCC(C)C2)c2cc(Cl)ccc23)cc1 (stereo unspecified),"inconclusive: 10 µM [inhibitor, single point]",,
OCC1CN(Cc2ccc(C(F)(F)F)cc2)CC12CCNCC2 (stereo unspecified),,,inactive
CC(c1cccs1)N(C)C(=O)c1ccc(C(F)(F)F)cc1 (stereo unspecified),,inactive: -19.8% [at 44.1 µM],
O=C(NCc1nnc2n1C(C(=O)O)CC2)C1CCCC1 (stereo unspecified),,inactive: 16.2% [at 44.1 µM],
Cc1cnc(CC2CCN(C(=O)NC(C)C)C2)n1C(C)C (stereo unspecified),,inactive: -3.89%,
COCCN1C(=O)c2ccccc2C(C(=O)NCc2ccc(F)cc2)C12CCCCC2 (stereo unspecified),,,inactive
CC[C@H]1CN2CC[C@H]1C[C@@H]2CNC(=S)Nc1ccc(C)cc1Br,"inconclusive: 14.1 µM [inhibitor, single point]",,
COCC(=O)NC1CCC12CCN(C(=O)NC1CCCCC1)CC2 (stereo unspecified),,inactive: -21.1%,
O=C(NC1CCCCC1)c1ccc2c(c1)N(Cc1ccccc1)C(=O)c1ccccc1S2,"inconclusive: 8.91 µM [inhibitor, single point]",,
Cn1cc(CC(=O)N2CCCc3ncc(C(=O)Nc4cccnc4)cc32)c2ccccc21,"inconclusive: 0.794 µM [inhibitor, full curve, poor fit]",,
O=C(CN1C(=O)C2(SCC(=O)N2c2ccccc2)c2ccccc21)NCc1ccccc1Cl (stereo unspecified),"inconclusive: 6.31 µM [inhibitor, partial curve, poor fit]",,
